Results from PubChem BioAssay AID504845 (National Center for Advancing Translational Sciences (NCATS), 2011).
Hit rate of the full screen: of about 390,000 compounds, about 150 (0.038%) were called active. Inconclusive means that the source gave no clear call. Such entries were picked first, then a sample of the others. The call rests on the fitted dose curve; in most records, active means well fitted inhibition curve with a large enough effect; inconclusive means small, poorly fitted or top-dose-only effect; inactive means no such curve, though single readings can be large or run the other way. A potency beside an inconclusive call is a rough fit, not a confirmed value.

What follows are molecules tested against Regulator of G-protein signaling 4 (Homo sapiens) (UniProt P49798) (assay: Inhibitors of Regulator of G Protein Signaling (RGS) 4: qHTS). Conditions: Transcreener GDP fluorescence polarization, RGS4-accelerated GTP hydrolysis; series mostly up to 114 µM.
Sequence of UniProt P49798 (P49798 whole entry, looked up): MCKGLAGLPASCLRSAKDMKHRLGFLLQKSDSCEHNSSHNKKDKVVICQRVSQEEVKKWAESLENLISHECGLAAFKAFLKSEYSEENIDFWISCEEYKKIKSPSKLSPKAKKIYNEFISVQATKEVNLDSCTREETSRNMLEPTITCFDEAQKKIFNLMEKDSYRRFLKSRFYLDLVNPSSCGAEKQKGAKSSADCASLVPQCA
How it was run: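 MLSMR compounds (23 nl, pin-transferred) preincubated 10 min at room temperature with a 500nM (2x) first reagent, then RGS4 at 900nM (2x) plus Transcreener GDP mix added; fluorescence polarization (620/688 nm) read before and after 90 min at 30 °C.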
Further: nearly all actives have a fitted effect of over 75% in size.
On the % scale 0 is the no-effect control and ±100 the full control effect; potency means the concentration at half of the fitted maximal effect; tags describe the fitted curve by direction and shape.

Row | SMILES | Potency | activity change, negative = inhibition
1 | c1ccc(C(OCCN2CCN(c3ncccn3)CC2)c2ccccc2)cc1 | inactive | 
2 | O=C1NC(=O)C(=Cc2ccco2)C(=O)N1 | inconclusive: 44.7 µM [inhibitor, partial curve, poor fit] | 
3 | O=C1NC(=O)C(Nc2ccc(Cl)c(Cl)c2)C(=O)N1 | inconclusive: 50.1 µM [inhibitor, partial curve, poor fit] | 
4 | O=C1NC(=O)C(=Cc2c(Cl)cccc2Cl)C(=O)N1 | inconclusive: 50.1 µM [inhibitor, partial curve, poor fit] | 
5 | O=C(CCN1CCN(CCO)CC1)N1c2ccccc2Sc2ccc(C(F)(F)F)cc21 | inconclusive: 31.6 µM [inhibitor, full curve, poor fit] | 
6 | CCN1C[C@]2(COC(=O)c3ccccc3N3C(=O)CC(C)C3=O)CC[C@H](OC)[C@@]34C5C[C@@H]6[C@@H](OC)C[C@@](O)(C5[C@H]6OC)[C@](O)([C@@H](OC)C23)[C@@H]14 (stereo not given in full) | inconclusive: 0.474 µM [inhibitor, full curve, poor fit] | 
7 | CCc1ccc(N2C(=O)NC(=O)/C(=C\C=C\c3ccco3)C2=O)cc1 | inconclusive: 35.5 µM [inhibitor, full curve, poor fit] | 
8 | CC12CCC3c4ccc(OC(=O)N(CCCl)CCCl)cc4CCC3C1CCC2O (stereo not given) | inactive | 
9 | CCN1CCN(c2ccc([N+](=O)[O-])cc2C=C2C(=O)NC(=O)NC2=O)CC1 | inconclusive: 31.6 µM [inhibitor, full curve, poor fit] | 
10 | CCN1C(=O)C(=Cc2c(C)n(CC(=O)NCC3CCCO3)c3ccccc23)C(=O)N(CC)C1=S (stereo not given) | inconclusive: 44.7 µM [inhibitor, partial curve, poor fit] | 
11 | c1ccc2c(N3CCNCC3)cccc2c1 | inactive | 
12 | O=[N+]([O-])/C=C/c1ccc2c(c1)OCO2 | active: 1.5 µM | 
13 | CC(C)N(CCC(C(N)=O)(c1ccccc1)c1ccccn1)C(C)C (stereo not given) | inconclusive: 2.12 µM [inhibitor, full curve, poor fit] | 
14 | Cc1ccc(P(=O)(O)c2ccc(C)cc2)cc1 | inconclusive: 89.1 µM [inhibitor, single point] | 
15 | Cc1nn(C2CCOC(C)(C)C2)c2c1C(c1ccc(OC(C)C)cc1)SCC(=O)N2 (stereo not given) | inconclusive: 35.5 µM [inhibitor, partial curve, poor fit] | 
16 | Clc1ccc(C2CC3CCC2N3)cn1 (stereo not given) | inconclusive: 29.9 µM [inhibitor, partial curve, poor fit] | 
17 | CN(C)CC1Oc2ccccc2OC1(O)c1ccccc1 (stereo not given) | inconclusive: 17.8 µM [inhibitor, full curve, poor fit] | 
18 | COc1ccc(CN2C(=O)NC(=O)/C(=C\c3ccco3)C2=O)cc1 | inconclusive: 28.2 µM [inhibitor, full curve, poor fit] | 
19 | Cc1ccc(C2CC(=O)C(C=NCCN3CCN(C(=O)Cc4ccccc4)CC3)=C(O)C2)cc1 (stereo not given) |  | inactive: 18.5% [at 11.4 µM]
20 | COc1ccc(CN2C(=O)CC(=O)NC2=S)cc1 | inconclusive: 35.5 µM [inhibitor, full curve, poor fit] | 

Row | SMILES | Potency | activity change, negative = inhibition
21 | COc1cc(/C=C2\C(=O)NC(=O)N(c3ccccc3)C2=O)cc(OC)c1OC | inconclusive: 50.1 µM [inhibitor, partial curve, poor fit] | 
22 | O=C1NC(=O)C(=Cc2ccccc2Oc2ccc(F)cc2)C(=O)N1 | inconclusive: 35.5 µM [inhibitor, full curve, poor fit] | 
23 | COc1cc(/C=C/[N+](=O)[O-])ccc1O | inconclusive: 39.8 µM [inhibitor, full curve, poor fit] | 
24 | COc1ccc([N+](=O)[O-])cc1NC(=O)COC(=O)c1ccccc1C(=O)c1ccccc1 | inconclusive: 50.1 µM [inhibitor, partial curve, poor fit] | 
25 | CN1C(=O)NC(=O)/C(=C\C=C\c2ccccc2[N+](=O)[O-])C1=O | inconclusive: 50.1 µM [inhibitor, partial curve, poor fit] | 
26 | Cc1ccc(/C=C2\C(=O)NC(=S)N(c3ccc(F)cc3)C2=O)o1 | inconclusive: 28.2 µM [inhibitor, full curve, poor fit] | 
27 | Cc1ccsc1C(=O)C1CCCN(Cc2ccn[nH]2)C1 (stereo not given) | inactive | 
28 | O=C1NC(=O)C(=Cc2csc3ccccc23)C(=O)N1 | inconclusive: 25.1 µM [inhibitor, full curve, poor fit] | 
29 | CCOc1cccc(N2C(=O)/C(=C/c3ccco3)C(=O)NC2=S)c1 | inconclusive: 44.7 µM [inhibitor, partial curve, poor fit] | 
30 | CN1C(=O)C(=Cc2ccccc2OS(=O)(=O)c2ccccc2)C(=O)N(C)C1=O | inconclusive: 50.1 µM [inhibitor, partial curve, poor fit] | 
31 | CC(C)=CCOc1c2occc2cc2ccc(=O)oc12 | inconclusive: 79.4 µM [inhibitor, partial curve, poor fit] | 
32 | CCCCn1c(NC(=O)c2ccco2)c(C(=O)OCC)c2nc3ccccc3nc21 | inconclusive: 11.2 µM [inhibitor, full curve, poor fit] | 
33 | CCOc1cc(C=C2C(=O)NC(=O)NC2=O)ccc1OS(=O)(=O)c1ccccc1 | inconclusive: 35.5 µM [inhibitor, full curve, poor fit] | 
34 | COc1ccc(CN2C(=O)NC(=O)/C(=C/c3ccc([N+](=O)[O-])s3)C2=O)cc1 | inconclusive: 20 µM [inhibitor, full curve, poor fit] | 
35 | Cc1ccccc1-n1c(C)nc2ccccc2c1=O | inactive | 
36 | COc1cc(N2CCOCC2)ccc1/C=C1\C(=O)NC(=O)N(Cc2cccs2)C1=O | inconclusive: 31.6 µM [inhibitor, partial curve, poor fit] | 
37 | CC1Oc2cc3c(-c4c(O)cc(O)c5c(O)c6c(cc45)OC(C)C(C)C6=O)c(O)cc(O)c3c(O)c2C(=O)C1C (stereo not given) | inconclusive: 10 µM [inhibitor, full curve, poor fit] | 
38 | CCCCCCCCCCCCCCCCOC[C@@H](COP(=O)([O-])OCC[N+](C)(C)C)OC(C)=O | inconclusive: 1.19 µM [inhibitor, full curve, poor fit] | 
39 | COc1ccccc1C=C1C(=O)NC(=S)NC1=O | inconclusive: 28.2 µM [inhibitor, full curve, poor fit] | 
40 | Cc1ccc(Cl)cc1N1CCN(CCN)CC1 | inconclusive: 89.1 µM [inhibitor, single point] | 

Row | SMILES | Potency | activity change, negative = inhibition
41 | O=C1NC(=O)N(Cc2ccco2)C(=O)/C1=C/c1ccc(-c2cccc([N+](=O)[O-])c2)o1 | inconclusive: 10 µM [inhibitor, full curve, poor fit] | 
42 | O=c1nc(/C=C/c2ccc(Cl)cc2Cl)cc(C(F)(F)F)[nH]1 | inconclusive: 17.8 µM [inhibitor, full curve, poor fit] | 
43 | O=C(CO)C(O)C(O)C(O)CO (stereo not given) | inconclusive: 50.1 µM [inhibitor, partial curve, poor fit] | 
44 | CN[C@@H]1C[C@@H](c2ccc(Cl)c(Cl)c2)c2ccccc21 | inconclusive: 13.4 µM [inhibitor, partial curve, poor fit] | 
45 | NS(=O)(=O)c1ccc(N=Cc2c(O)n(-c3ccccc3)c(=O)[nH]c2=O)cc1 | inconclusive: 89.1 µM [inhibitor, single point] | 
46 | CN1CCN(Cc2ccccc2Sc2ccccc2)CC1 | inactive | 
47 | O=C1NC(=O)N(CCNc2ncc(C(F)(F)F)cc2Cl)C(=O)C1Cc1ccc(Cl)cc1 (stereo not given) | inconclusive: 44.7 µM [inhibitor, partial curve, poor fit] | 
48 | C[C@H](N)CN1CCc2ccc(Br)cc21 | inconclusive: 37.6 µM [inhibitor, single point] | 
49 | CCOP(=S)(OCC)SCSP(=S)(OCC)OCC | inconclusive: 50.1 µM [inhibitor, partial curve, poor fit] | 
50 | CCN(CCCNS(=O)(=O)c1ccc2c(c1)oc(=O)n2C)c1cccc(C)c1 | inconclusive: 50.1 µM [inhibitor, partial curve, poor fit] | 
51 | Cc1cc([N+](=O)[O-])c2ccccc2[n+]1[O-] | inactive | 
52 | CC(=O)N1CCN(c2ccc(OC[C@H]3CO[C@](Cn4ccnc4)(c4ccc(Cl)cc4Cl)O3)cc2)CC1 | inconclusive: 37.7 µM [inhibitor, single point] | 
53 | Cn1cccc1/C=C1\C(=O)NC(=O)N(Cc2ccccc2Cl)C1=O | inconclusive: 70.8 µM [inhibitor, single point] | 
54 | O=C1NC(=O)C(=Cc2ccc(-c3cc(Cl)ccc3[N+](=O)[O-])o2)C(=O)N1 | inconclusive: 100 µM [inhibitor, partial curve, poor fit] | 
55 | CCOC(=O)C1(CCOc2ccccc2)CCN(Cc2ccc(C)s2)CC1 | inactive | 
56 | O=C1NC(=O)N(c2ccc(Cl)cc2)C(=O)/C1=C\c1ccc(Sc2nc3ccccc3[nH]2)o1 | inconclusive: 28.2 µM [inhibitor, full curve, poor fit] | 
57 | COc1cccc(CCNCc2c(F)cccc2F)c1 | inconclusive: 50.1 µM [inhibitor, partial curve, poor fit] | 
58 | Cc1cccc(NP(=O)(Oc2ccccc2F)Oc2ccccc2F)c1C | inconclusive: 89.1 µM [inhibitor, single point] | 
59 | Nc1c(C(=O)NCC2CCCO2)c2nc3ccccc3nc2n1Cc1ccco1 (stereo not given) | inactive | 
60 | CCc1ccc(NC(=O)CN2C(=O)C3(SCC(=O)N3c3ccc(F)c(F)c3)c3ccccc32)cc1 (stereo not given) | inconclusive: 89.1 µM [inhibitor, partial curve, poor fit] | 
